Certain results were filed several times, with different values. Only these are listed. There may be further records. Values given together repeat one measurement (runs, samples, wells, individuals or studies). Brackets with × give the number of equal values in this list. Marks such as [2022-09] give the month of the run.
Tested on: 935938-334-R-J1-PDC complex spheroid viability
Assay: Anticancer human tumor 935938-334-R-J1-PDC patient-derived small intestine adenocarcinoma cell line growth inhibition [POLQ]
Details: stronger effect = lower value
Procedure: Multicellular complex tumor spheroid response to Polymerase (POL) inhibitors (novobiocin, ART-558, RP6685) in combination with a variety of drugs and investigational agents in selected tumor cell lines
The POL inhibitors (novobiocin, ART-558, and RP6685) were evaluated both individually and in combination with standard of care and investigational anticancer small molecules within a complex spheroid model of solid tumors. . Complex spheroids include a stromal component modeled by human endothelial cells (HUVEC) and fibroblasts modeled by human mesenchymal stem cells (MSCs). The concentration ranges selected for each drug and investigational agent were based upon clinically achievable concentrations if the clinical Cmax of the agent was known.
Compounds. The drugs and investigational agents: novobiocin (NSC847541), ART-558 (NSC835418), RP-6685 (NSC848927), peposertib (NSC802822), ceralasertib (NSC780249), elimusertib (NSC800525), camonsertib (NSC841442), AZD-1390 (NSC803789), olaparib (NSC753686), talazoparib (NSC767125), rucaparib (NSC756644), sotorasib (NSC818433), MRTX-1133 (NSC836407), SN-38 (NSC673596), topotecan (NSC609699), epotoside (NSC141540), doxorubicin (NSC123127), gemcitabine (NSC613327), 5-fluorouracil (NSC19893), paclitaxel (NSC125973), vemurafenib (NSC761431), MSA-2 (NSC828583), SN-011 (NSC837082), adavosertib (NSC754352), prexasertib (NSC758257), carboplatin (NSC241240) and oxaliplatin (NSC266046), were obtained from the National Cancer Institute (NCI) Developmental Therapeutics Program Chemical Repository (21). The FDA-approved anticancer drug set is available from the Developmental Therapeutics Program at https://dtp.cancer.gov/organization/dscb/obtaining/. […] The stock solutions were prepared in dimethyl sulfoxide (DMSO, Sigma-Aldrich, St. Louis, MO, cat. D2650), except for the platinum compounds which were prepared in saline (Quality Biological, Gaithersburg, MD, cat. 114-055-101), at 800-fold the tested concentration and stored at -70 degrees C prior to their use. All drugs and investigational agents were tested over a range starting from a high concentration at or near the clinical Cmax and decreasing in half-log increments. If the clinical Cmax for an agent had not been determined, the highest concentration tested was 10 microM, except for SN-38, which was tested at a high concentration of 1 microM.
Cell Culture. All cells were maintained in an incubator at 37 degrees C and 5% CO2 with 95% humidity. The PDC lines were cultured according to standard operating procedures established by the NCI PDMR (https://pdmr.cancer.gov). Table 3 of the manuscript, lists the cell lines along with the number of the three cell types plated to form the mct-spheroids and media for tumor cell growth. After thawing, all PDC lines, except 997537-175-T-J1-PDC and 415267-285-R-J2-PDC, were cultured in Matrigel-coated flasks prepared with a working solution of 1X Ham's F-12 nutrient mix, without supplementation (Thermo Fisher Scientific, cat. 11765054), 100 U/mL penicillin-streptomycin (Thermo Fisher Scientific, cat. 15140122), and 2.5% Matrigel (Corning Inc., Corning, NY, cat. 354248) for the first three passages. The two PDC lines 997537-175-T-J1-PDC and 415267-285-R-J2-PDC were cultured on uncoated flasks. The 857933-349-R-J2-PDC line was cultured in 6C/Colon 1B media containing advanced DMEM/F-12 (Thermo Fisher Scientific, cat. 12634028), 10 mM HEPES (Thermo Fisher Scientific, cat. 15630080), 1X GlutaMAX supplement (Thermo Fisher Scientific, cat. 35050061), 0.1 mg/mL primocin (InvivoGen, San Diego, CA, cat. ant-pm-2), 10% defined fetal bovine serum, heat inactivated (HyClone Laboratories Inc., Logan, UT, cat. SH30070.03HI), 50% L-WRN conditioned media (ATCC, cat. CRL-3276), 1.25 mM N-Acetyl-L-cysteine (Sigma-Aldrich, cat. A9165), 10 mM nicotinamide (Sigma-Aldrich, cat. N0636), 1X B-27 supplement (Thermo Fisher Scientific, cat. 17504044), 1X N-2 supplement (Thermo Fisher Scientific, cat. […]
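Also: spheroids exposed to drugs for seven days before viability read; 100% = DMSO vehicle control wells.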

SMILES | viability, T/C (compound alone 0.0316 µM) | viability, T/C (compound alone 0.1 µM) | viability, T/C (compound alone 0.316 µM) | viability, T/C (compound alone 1 µM) | viability, T/C (compound alone 3.16 µM) | viability, T/C (compound alone 10 µM)
Cc1cccc(N(C)C(=O)C2C(O)CCN2c2nc(C)cc(C(F)(F)F)c2C#N)c1 (stereo not drawn) | 96.7, 102, 78.5, 82.4, 71.4, 118, 109, 83.6% [2023-11] and 87.5, 92.8, 103, 100, 95.8% [2023-12] | 114, 105, 94.9, 73.8, 94.5, 112, 93.3, 81.4% [2023-11] and 90.7, 90.4, 97.9, 99.3, 86.2% [2023-12] | 96.2, 118, 94.8, 95.7, 101, 107, 95.9, 112% [2023-11] and 124, 96, 94, 96.2, 89.5% [2023-12] | 94.7, 98.3, 99.2, 80.2, 90.4, 112, 98.2, 101% [2023-11] and 87.1, 108, 109, 91.8, 87.2% [2023-12] | 95.3 (2×), 94.5, 73.9, 108, 97.6, 107, 98.1% [2023-11] and 97.9, 106, 87.5, 95.2, 90.8% [2023-12] | 98.1, 101 (2×), 95, 94.2, 89.1, 108, 95.9% [2023-11] and 119, 85.5, 101, 86.4, 89.6% [2023-12]
COC1C(OC(N)=O)C(O)C(Oc2ccc3c(O)c(NC(=O)c4ccc(O)c(CC=C(C)C)c4)c(=O)oc3c2C)OC1(C)C (stereo not drawn) | 86.3, 95.7, 88.8, 84.6, 89.7, 75.9, 89.2, 91.2, 79.8, 111, 127, 89.4, 98.3% | 110, 87, 98, 96.5, 112 (2×), 91.4, 92.4, 99.4, 126, 91, 85.5, 101% | 111, 76.3, 107, 105, 101, 81.6, 94.2, 86.8, 90.9, 81.1, 87.1, 84.7, 96.9% | 88.5, 88.8, 108, 98.1, 69.8, 78, 95.8, 92.2, 91, 77.9, 104, 100, 86% | 106, 118, 114, 87, 82.4, 84.2, 93, 111, 93.1, 112, 94.9, 100, 101% | 95.3, 112, 124, 98.5, 117, 90.5, 97.3, 93.5, 127, 103, 109, 96.6, 96.1%
Nc1ccc(C#CCN(C(=O)Cc2ncc(C(F)(F)F)cc2C(F)(F)F)c2ccc(F)cc2)nn1 | 89.8, 115, 109, 88.5, 80.4, 94.1, 95.4, 100, 110, 72.4, 87, 73.6, 101% | 103, 102, 85.6 (2×), 67.2, 85.1, 84.5, 101, 86.1, 122, 72, 82.5, 99.7% | 105, 82.4, 95.7, 113, 111, 116, 77.9, 93.5, 86.7, 101, 91.9, 86.1, 74.4% | 103, 84.2, 95.8, 63.6, 96.3, 95.2, 84.6, 104, 83.7, 89.7, 105, 102, 93.6% | 112 (3×), 90.9, 97.8, 130, 97.2, 103, 104, 97, 79.4, 88.1, 108% | 107, 101, 88, 91.4, 102, 94.7, 105, 89.9, 123, 116, 111, 108, 121%

From PubChem BioAssay AID1963829 (Molecular Pharmacology Branch, DTP, NCI, 2024)
